Assay results published in the RNAGym collection of RNA variant scans (doi:10.1073/pnas.2313332121).
This sample is rich in variants without activity.

B1: TPR 5TU (parent)
chain: GGAUCUUCUCGAUCUAACAAAAAAGACAAAUCUGCCACAAAGCUUGAGAGCAUCUUCGGAUGCAGAGGCGGCAGCCUUCGGUGGCGCGAUAGCGCCAACGUUCUCAACUAUGACACGCAAAACGCGUGCUCCGUUGAAUGGAGUUUAUCAUG

Variants of: B1
Assay: polymerase ribozyme fitness, log enrichment relative to wild type (log ratio); higher = more active; in vitro selection for triplet polymerase activity
Outline: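 A single round of triplicate in vitro selection, including frozen incubation at −7 °C, was applied to PCR-built, transcribed mutant libraries of each subunit of a heterodimeric triplet polymerase ribozyme. Illumina sequencing of input and output libraries retained genotypes with ≥10 input reads and ≥1 read per output. Fitness is the base-2 logarithm of genotype enrichment divided by wild-type enrichment, from inverse-variance-weighted replicate averages.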

Polymerase ribozyme fitness (log ratio), -2.8:
GGAUCUUCUCGAUCUAACAAAAAAGACAAAUCUGCCACAAAGCUUGAGAGCAUGUUCGGAUGCAGAGGCGGCAGCCUUCGGUGGCACGAUAGCGCCAACGUUCUCAACUAUGACACGCAUAACGCGUGCUCCGUUGAAUGGAGUUUAUCAUG [C54G G86A A120U]

Polymerase ribozyme fitness (log ratio), -3.08:
GGAUCUUCUCGAUCUAACAAAAAAGACAAAUCUGCCACAAAGCUUGAGAGCAUGUACGGAUGCAGAGGCGGCAGCCUUCGGUGGCGCGAUAGCGCGAACGUCCUCAACUAUGACACGCAAAACGCGUGCUCCGUUAAAUGGAGGUUAUCAUG [C54G U56A C96G U102C G136A U144G]

Polymerase ribozyme fitness (log ratio), -1.08:
GGAUCUUCUCGAUCUAACAAAAAAGACAAAUCUGCCACAAAGCUUGAGAGCAUGUUCGGAUGCAGAGGCGGCAGCCUUCGGUGGCGCGAUAGCGCCAACGUUCUCAACUAUGACAUGCAAAACGCGUGCUCCGUUGAAUGGAGUUUAUCAUG [C54G C116U]

Polymerase ribozyme fitness (log ratio), -0.314:
GGAUCUUCUCGAUCUAACAAAAAAGACAAAUCUGCCACAAAGCUUGAGAGCAUUUUCGGAUGCAGAGGCGGCAGCCUUCGGUGGCGCGAUAGCGCCAACGUUCUCAACUAUGACACGCAAAACGCGUGCUCCGUUGAAUGGAGUUUAUCAUG [C54U]

Polymerase ribozyme fitness (log ratio), -3.13:
GGAUCUUCUCGAUCUAACAAAAAAGACAAAUCUGCCACAAAGCUUGAGAGCAUUUUCGGAUGCAGAGGCGGCAGCCUUCGGUGGCGCGAUAGCGCCAACGUUCUCAACUAUGACGCGCAAAACGCGUGCUCCGUUGAAUGGAGUUUAUCAUG [C54U A115G]

Polymerase ribozyme fitness (log ratio), -4.15:
GGAUCUUCUCGAUCUAACAAAAAAGACAAAUCUGCCACAAAGCUUGAGAGCAUUUUCGGAUGCAGAGGCGGCAGCCUUCGGUGGCGCGAUAGCGCCAACGUUCUCAACUCUGAUACGCAAUACGCGUGCUCCGUUGAAUGGAGUUUAUCAUG [C54U A110C C114U A121U]

Polymerase ribozyme fitness (log ratio), -2.33:
GGAUCUUCUCGAUCUAACAAAAAAGACAAAUCUGCCACAAAGCUUGAGAGCAUGUUCGGAUGCAGAGGCGGCAGCCUUCGGUGGCGCGAUAGCGCGAACGUUCUCAACUAUGACACGCAAAACGCAUGCUCCGUUGAAUGGAGUUUAUCAUG [C54G C96G G126A]

Polymerase ribozyme fitness (log ratio), ≤ -4.2:
GGAUCUUCUCGAUCUAACAAAAAAGACAAAUCUGCCACAAAGCUUGAGAGCAUGUUCGGGUGCAGAGGCGGCAGCCUUCGAUGGCGCGAUAGGGCCAACGUUCUCAACUAUGACACGUAAAACGCGUGCUCCGUUGAAUGGAGUUUAUCAUG [C54G A60G G81A C93G C118U]
GGAUCUUCUCGAUCUAACAAAAAAGACAAAUCUGCCACAAAGCUUGAGAGCAUGUUCGGUUGCAGAGGCGGCAGCCAUCGGUGGCGCGAUAGCGCCAACGUUCUCAACUAUGACACGCAAAACGCGUGCUCCGUUGAAUGUAGUUUAUCAUG [C54G A60U U77A G141U]
GGAUCUUCUCGAUCUAACAAAAAAGACAAAUCUGCCACAAAGCUUGAGAGCAUGUUCGGAUGCGGAGGCGGCAGCCUUCGGUGGCGCGAUAGCGCCAACGUUCUCUCCUAUGACACGCAAAACGCGUGCUCCGUUGAAUGGAGUUUAACAUG [C54G A64G A106U A107C U148A]
GGAUCUUCUCGAUCUAACAAAAAAGACAAAUCUGCCACAAAGCUUGAGAGCAUGUUCGGAUGCAGCGGCCGCAGCCUUCGGUGGCGCGAUAGCGCCAACCUUCUCAACUAUGACACGCAAAACGCGUGCUCCGUUGAAUGGAGUUUAUCAUG [C54G A66C G70C G100C]
GGAUCUUCUCGAUCUAACAAAAAAGACAAAUCUGCCACAAAGCUUGAGAGCAUGUUCGGAUGCAGAGGCGGCAGCCUUCGGUGGCGCGAUAGCGCCAACGUUCUCGACUAUGACACGCAAAACGCGUGCUCCGUUGUAUGGAGUUUAUCAUG [C54G A106G A137U]
GGAUCUUCUCGAUCUAACAAAAAAGACAAAUCUGCCACAAAGCUUGAGAGCAUGUUUGGAUGCAGAGGCGGCAGACUUCGGUGGCGCGAUAGCGCCUACGUUCUCAACUAUGACACGCAAAACGCGUGCUCCGUUGAAUGCAGUGUAUCAUG [C54G C57U C75A A97U G141C U145G]
GGAUCUUCUCGAUCUAACAAAAAAGACAAAUCUGCCACAAAGCUUGAGAGCAUGUUUGGAUGCAGAGGCGGCAACCUUCGGUGGCGUGAUAGCGCCAGCGUUCUCAACUAUGACACGCAAAACGCGUGCUCCGUUGAAUGGAGUUUAUCAUG [C54G C57U G74A C87U A98G]
GGAUCUUCUCGAUCUAACAAAAAAGACAAAUCUGCCACAAAGCUUGAGAGCAUGUUCGGAUGCAGAGGCGGUAGCCUUCGGUGGAGCGCUAGCGCAAACGUUCUCAACUAUGACAGGCAAAACGCGUGCUCCGUUGAAUGGAGUUUAUCAUG [C54G C72U C85A A89C C96A C116G]
GGAUCUUCUCGAUCUAACAAAAAAGACAAAUCUGCCACAAAGCUUGAGAGCAUGUUCGGAUGCAGAGGCGGCAGCAUUCGGUGGCGCGCUAGCGCCAUCGUUCUCAACUAUGACUCGCAAAACGCGUGCUCCGUUGAAUGGAGUUUAUCAAG [C54G C76A A89C A98U A115U U151A]
GGAUCUUCUCGAUCUAACAAAAAAGACAAAUCUGCCACAAAGCUUGAGAGCAUGUUCGGAUGCAGAGGCGGCAGCCUUUGGUGGCGCGAUAGCCCUAACGUUCUCAACUAUGACACGCAAAACGCGUGCUCCGUUGAAUGGAGUUUAUCGUG [C54G C79U G94C C96U A150G]
GGAUCUUCUCGAUCUAACAAAAAAGACAAAUCUGCCACAAAGCUUGAGAGCAUGUUCGGAUGCAGAGGCGGCAGCCUUCGGUGGCGCGAUAGAGGCAACGUUCUCAACUAUGACACGCAAAACGCGUGCUCCGUUGAAUGGAGUUUAUCGUG [C54G C93A C95G A150G]
GGAUCUUCUCGAUCUAACAAAAAAGACAAAUCUGCCACAAAGCUUGAGAGCAUGUUCGGAUGCAGAGGCGGCAGCCUUCGGUGGCGCGAUAGCGCCAACGUUGUCAACUAUGACACGCAAAACGCGUGCUCCGUUGAAUGGAGUUUAUCAUG [C54G C103G]
GGAUCUUCUCGAUCUAACAAAAAAGACAAAUCUGCCACAAAGCUUGAGAGCAUGUUCAGAUGCAGAGGCGGCAGCCUUCGGUGGCGCCAUAGCGCCAAUGUUCUCAACUAUGACACGCAAAACGCGUGCUCCGUUGAAUGGAGUUUAUCAUG [C54G G58A G88C C99U]
GGAUCUUCUCGAUCUAACAAAAAAGACAAAUCUGCCACAAAGCUUGAGAGCAUGUUCGCAUGCAGAGGCGGCAGCCUUCGGUGUCGCGAUAGCGCCAACGUUCUCAACUAUGACACGCAAAACGCGUGCUCCGUUGAAUGGAGUUUAGCAUG [C54G G59C G84U U148G]
GGAUCUUCUCGAUCUAACAAAAAAGACAAAUCUGCCACAAAGCUUGAGAGCAUGUUCGUAUGCAGAGGCGGCAGCCUUCGGUGGCGCGAUAGCGCCAACGUUCUCAACUAUGACACGCAAAACGCGUGCUCCGUCGAUUGGAGUUUAUCAUG [C54G G59U U135C A138U]
GGAUCUUCUCGAUCUAACAAAAAAGACAAAUCUGCCACAAAGCUUGAGAGCAUGUUCGGAUGCAAAGGCGGCAGCCUUCGGUGGCCCGAUAGCGCCAACGUUCUCAACUAUGACACUCAAAACGCGUGCUCCGUUGAAUGGAGUUUAUCAUG [C54G G65A G86C G117U]
GGAUCUUCUCGAUCUAACAAAAAAGACAAAUCUGCCACAAAGCUUGAGAGCAUGUUCGGAUGCAGAGGCGGCAGCCUUCGGUUGCGCGAUAGCGCCAACGUUCUCAAUUAUGACGCGCAAAACGCGUGCUCCGUUGAAUGGAAUUUAUCAUG [C54G G83U C108U A115G G143A]
GGAUCUUCUCGAUCUAACAAAAAAGACAAAUCUGCCACAAAGCUUGAGAGCAUGUUCGGAUGCAGAGGCGGCAGCCUUCGGUGGCUCGAUAGCGCCGACGUUCUCAGCUAUGACACGCAAAACGCGUGCUCCGUUGCAUGGAGUUUAUGAUG [C54G G86U A97G A107G A137C C149G]
GGAUCUUCUCGAUCUAACAAAAAAGACAAAUCUGCCACAAAGCUUGAGAGCAUGUUCGGAUGCAGAGGCGGCAGCCUUCGGUGGCGCGAUAGCACCAACGUUCUCAACUAUGACAAGCAAAACGCGUGCUCCGUUGAAUGGAGUUUAUUAUG [C54G G94A C116A C149U]
GGAUCUUCUCGAUCUAACAAAAAAGACAAAUCUGCCACAAAGCUUGAGAGCAUGUUCGGAUGCAGAGGCGGCAGCCUUCGGUGGCGCGAUAGCGCCAACGUUCUCAACUAUGACACGCAAAACGCGUGCUCCGUUGAAUAGAGUUAAUCAUG [C54G G140A U146A]
GGAUCUUCUCGAUCUAACAAAAAAGACAAAUCUGCCACAAAGCUUGAGAGCAUGAUCGGAUGCAGAGGCGGCAGCCUUCGGUGGCGCGAUAGCACCAACGUUCUCAACUAUGACACGCAAAACGCGUGCUCUGUUGAAUGGAGUUUAUCAUG [C54G U55A G94A C132U]
GGAUCUUCUCGAUCUAACAAAAAAGACAAAUCUGCCACAAAGCUUGAGAGCAUGUACGGAUGCAGAGGCGACAGCCUUCGGUGGCGCGAUAGCACCAACGAACUCAAUUAUGACAGGCAAAACGUGUGCUCCGUUGACUGGAGUUUAUCAUG [C54G U56A G71A G94A U101A U102A C108U C116G C125U A138C]
GGAUCUUCUCGAUCUAACAAAAAAGACAAAUCUGCCACAAAGCUUGAGAGCAUGUUCGGACGCAGAGGCGGCAGCCUUCGGUGUCGUAAUAGCGCCAACGUUCUCAACUAUGACACGCUAAACGCGUGCUCCGUUGAAUGGAGUUUAUCAUG [C54G U61C G84U C87U G88A A119U]
GGAUCUUCUCGAUCUAACAAAAAAGACAAAUCUGCCACAAAGCUUGAGAGCAUGUUCGGAUGCAGAGGCGGCAGCCUUCGGGGGCGCGAUAGCACCAACGUUCCCAACUAUGACACACUAAACUCGUGCUCCGUUAAAUGGAGUUUAUCAGG [C54G U82G G94A U104C G117A A119U G124U G136A U151G]
GGAUCUUCUCGAUCUAACAAAAAAGACAAAUCUGCCACAAAGCUUGAGAGCAUGUUCGGAUGCAGAGGCGGCAGCCUUCGGUGGCGCGACAGCGCCAGCGUUCUUAACUAAGACACGCAAAACGCGUGCUCCGUUGAAUGGAGUUUAUCAUG [C54G U90C A98G C105U U111A]
GGAUCUUCUCGAUCUAACAAAAAAGACAAAUCUGCCACAAAGCUUGAGAGCAUGUUCGGAUGCAGAGGCGGCAGCCUUCGGUGGCGCGAUAGCGCCAACGUUCGCAACUAUGACACGCAAAACGCGUGCUCCGUUGAAUGGAGAUUAUCAUG [C54G U104G U144A]
GGAUCUUCUCGAUCUAACAAAAAAGACAAAUCUGCCACAAAGCUUGAGAGCAUUUUCGGAUGCCGAGGCGGCAGCCUUCGGUGGCGCGAGAGCGCCAACGUUCUCAACUAUGACACGCAAAACGCGUGCUCCGUUGAAGAGAGUUUAUCAUG [C54U A64C U90G U139G G140A]
GGAUCUUCUCGAUCUAACAAAAAAGACAAAUCUGCCACAAAGCUUGAGAGCAUUUUCGGAUGCGGAGGCGGCAGCCUUCAGUGGCGCGGUAGCACCAACGUUCUCAACUUUGACACGCAAAACGCGUGCUCCGUGGAAUGGAGUUUAUCAUG [C54U A64G G80A A89G G94A A110U U135G]
GGAUCUUCUCGAUCUAACAAAAAAGACAAAUCUGCCACAAAGCUUGAGAGCAUUUUCGGAUGCUGAGGCGGCAGCCUUCGGUGGCGCGAUAGCGCAAACGUUCUCAACUAUGACACGCAAAACGCGUGCUCCGUUGAAUGGAGUUUAUCAUG [C54U A64U C96A]
GGAUCUUCUCGAUCUAACAAAAAAGACAAAUCUGCCACAAAGCUUGAGAGCAUUUUCGGAUGCAGAGGCGGCAGCCUUCGGUGGCGCGAUCGCGCCAACGUUCUCAACUAUGACACGCAAAACGCGUGCUCCGUUGAAUGGAGUUUAUCAUG [C54U A91C]

Polymerase ribozyme fitness (log ratio), -3.37:
GGAUCUUCUCGAUCUAACAAAAAAGACAAAUCUGCCACAAAGCUUGAGAGCAUGAUCGGAUGCAGAGGCGGCAGCCUUCGGUGGCGCGAUAGCUCCACCGUUCUCAACUAUGACACGCAAAACGCGUGCUCCGUUGAAUGGAGUUGAUCAUG [C54G U55A G94U A98C U146G]
